Out of some 150,000 compounds screened, about 540 (0.36%) showed an effect of 50% or more. The list shows a part of the results.
Tested on: Plasmodium falciparum
Assay: Primary screen in NF54 nanoGlo assay, in single point, at 2uM, 72h; a lower Z score goes with more inhibition
Format: functional, Erythrocyte
Details: timepoint 72 hour

| SMILES | % Inhibition | Z score |
| --- | --- | --- |
| CCc1nc2ccccc2c(C(=O)N2CCN3CCC[C@H]3C2)c1C | 4% | -0.44 |
| O=C(NCC1CN2CCCCC2CO1)Nc1ccccn1 (centres undefined) | 7% | -1.13 |
| Cn1cc(CN2C[C@@H]3C[C@H](C2)c2ccc(-c4cncnc4)c(=O)n2C3)c2ccccc21 | -6% | 1 |
| CC#CCn1ncc(N2CCN(C)CC2)cc1=O | 0% | 0.04 |
| CC(C)CN(Cc1cccnc1)C1CN(C(=O)Cc2cccnc2)C1 | 5% | -1.03 |
| Cn1cc(C(=O)Nc2ccc(C(F)(F)F)cc2)c2cccnc21 | 9% | -0.88 |
| CC[C@]1(O)CCCN(C(=O)CN2CCCC2=O)C1 | -14% | 1.25 |
| C[C@H](C(=O)N1CCC(N(C(=O)C(F)(F)F)c2cccnc2)CC1)C1CC1 | 14% | -1.63 |
| COc1ccc(C[C@H](C)NC(=O)C(C)(C)N)cc1OC | -5% | 0.6 |
| CC(C)C(NCCC1OCCO1)C(O)c1ccccc1 (centres undefined) | 3% | -0.56 |
| O=C1C[C@]2(CCCNC2)Oc2ccccc21 | 10% | -1.42 |
| CC(Cn1cc(Br)cn1)N[C@H](CO)c1ccccc1 (some centres undefined) | 6% | -0.82 |
| OC[C@H](Cc1c[nH]c2ccccc12)NC1CCC1 | -8% | 0.75 |
| Cc1[nH]c2ccccc2c1CCNCc1ccco1 | -14% | 2.65 |
| Cc1n[nH]c([C@@H]2CCN(C(=O)COc3ccccc3)CCN2CC2CCOCC2)n1 | -12% | 1.77 |
| N#Cc1ccc(N2CC3OCCN(Cc4ccccc4)C3C2)cn1 (centres undefined) | -8% | 0.88 |
| COc1ccccc1CNC(=O)C(Cl)(Cl)Cl | 8% | -0.96 |
| CCn1cc(CC(=O)N2CCN(Cc3nc(COC)no3)CC2)c2ccccc21 | 7% | -0.82 |
| CCC(C)N1CCC(N2CC(C)OC(C)C2)CC1 (centres undefined) | -5% | 0.67 |
| CN1C2CCC1CC(Oc1cccc(C(F)(F)F)n1)C2 (centres undefined) | 3% | -0.39 |
| CCN1CCN(C(=O)COc2ccc3nc4n(c(=O)c3c2)CCC4)CC1 | -15% | 1.56 |
| O[C@@]1(Cc2ccccc2)CN2CCC1CC2 | 35% | -1.04 |

| SMILES | % Inhibition | Z score |
| --- | --- | --- |
| CN(C)c1ncc(CN2C[C@H](O)C3(CC3)C2)s1 | -18% | 1.96 |
| CC[C@H]1C=CCN1C(=O)Cn1nnnc1C1(NCc2ccccc2)CCCCC1 | 1% | -0.23 |
| CC(C)(C)OC(=O)C1CC2CCC1N2Cc1csc(CC(=O)Nc2ccccc2)n1 (centres undefined) | -6% | 1.11 |
| Cn1nc2n(c1=O)CCN(S(=O)(=O)c1ccc3[nH]c(=O)oc3c1)CC2 | -10% | 1.14 |
| CCCC1CCC(N[C@@H]2C=C[C@H](CO)C2)CC1 (some centres undefined) | -7% | 0.9 |
| O=C(Cc1ccccc1)N1CCN([C@H](C(=O)N2CCc3ccccc3C2)C2CCCC2)CC1 | -5% | 0.44 |
| CC1(C)CC(NC2CCCC2(C)CO)C(C)(C)O1 (centres undefined) | -4% | 0.33 |
| COc1ccccc1CC(=O)N1CCCC[C@H](N2CCCC2)C1 | -9% | 1.21 |
| CC(O)CN1CCN(C(=O)Cc2ccncc2)C(C)C1 (centres undefined) | -3% | 0.41 |
| COC1COCCC1CC(=O)N1CCC(c2n[nH]c(=O)o2)CC1 (centres undefined) | -8% | 1.26 |
| C#CCN(C)C[C@H]1C[N@@]2CC[C@H]1C[C@@H]2CNS(=O)(=O)c1ccc(C)cc1 | 31% | -3.53 |
| Cc1ccc([C@H](C)n2cnc3cccc(F)c3c2=O)cn1 | 5% | -0.74 |
| O=C(c1ccc2ccccc2n1)N1CCC2(CC1)OCCO2 | -5% | 0.85 |
| Cn1ncc(Cl)c1C(=O)N1CCN2CCC[C@H]2C1 | 5% | -0.76 |
| CC(C)(C)N1C(=O)NC(=O)C2(Cc3ccccc3N3CCCC32)C1=O (centres undefined) | 32% | -3.66 |
| CC(C)C[C@H](CN)CC(=O)OCCC1CCCCO1 (some centres undefined) | 9% | -1.69 |
| O=S(=O)(c1ccc(Cl)s1)N1C[C@H]1c1ccccc1 (some centres undefined) | -3% | 0.51 |
| CC1(C)[C@H]2CC=C(CN3CCc4nocc4C3)[C@@H]1C2 | -2% | 0.44 |
| COc1ncccc1C(=O)N1C[C@H](c2ccccc2)[C@@H]2[C@H]1C1CCN2CC1 | -14% | 1.77 |
| CN(C)C(=O)c1cn(CC2CCCCC2)cc(C(=O)NCc2nc3ccccc3s2)c1=O | 9% | -1.22 |
| Cc1oc(-c2ccccc2)nc1Cn1c(=O)oc2ccccc21 | -4% | 0.48 |
| Cc1ccc(CN(Cc2ccc(F)cc2)C(=O)CN(CCN2CCOCC2)C(=O)Cc2ccccc2)o1 | -3% | 0.39 |

| SMILES | % Inhibition | Z score |
| --- | --- | --- |
| C=CCOc1cccc2c1cc(C(=O)NCc1ccccc1)n2C/C=C\C | -15% | 1.73 |
| Cc1cccc(-c2nc(C)c3c(n2)N(CCN2CCCC2)C(=O)C3)c1 | -8% | 1.16 |
| Cc1cccc([C@H]2C[C@@H](O)[C@@H](O)[C@@H]2NCC2CCCC2)c1 | -2% | 0.32 |
| O=C(Nc1ccc2c(c1)CNCC2)c1coc(Br)c1 | -2% | 0.31 |
| Nc1cc(-c2noc(C34CCCN(CCC3)C4)n2)ncn1 | -7% | 1.3 |
| O=C(CN1CCCC1=O)NC1CCCCCCC1 | -5% | 0.76 |
| CN1C[C@@H]2CN(C(=O)c3ncccc3Br)C[C@@H]2C1 | 4% | -0.7 |
| CC(C)(N)Cc1ccc(C(F)(F)F)cc1 | 1% | -0.09 |
| COc1ccc(NC(=O)CN2CCCN(C)S2(=O)=O)cc1 | -19% | 3.17 |
| c1ccc(CCNC2CCCCCCC2)nc1 | 5% | -0.79 |
| c1ccc2c(c1)c(-c1noc(-c3ccncc3)n1)nn2CCN1CCCCC1 | -6% | 0.98 |
| CC(C)(C)NC(=O)CN1C[C@H]2CCC[C@@H](C2)C1 | -15% | 1.95 |
| CN1CC2CN(C(=O)c3cccs3)CC(C1)O2 | -15% | 1.85 |
| Fc1ccc(CCNCc2ccc3[nH]ccc3c2)cc1 | 0% | 0.07 |
| COc1nc(NC2CCCCC2)nc(N2CC3CC(C2)c2cccc(=O)n2C3)n1 (centres undefined) | 29% | -3.23 |
| CC(=O)N(C1CCN(Cc2ccccc2)CC1)C1(C(=O)Nc2ccc3[nH]ccc3c2)CCN(C)CC1 | 92% | -11.04 |
| Cc1ccc([C@H]2CN(C(=O)Cc3cc(F)ccc3F)C[C@@H]2N(C)C)cc1 | -1% | 0.14 |
| COc1cccc(Cn2nnc(C(=O)O)c2-c2cccc(OC)c2)c1 | -7% | 1.38 |
| CCOCCc1nc(-c2c(C)ncc3c2CCNC3)no1 | -10% | 1.51 |
| CC(C)(O)CC(=O)N1CCN2CCOC[C@@H]2C1 | 12% | -2.3 |
| NCC(=O)c1c(Cl)cccc1Cl | -13% | 1.82 |
| COc1ccccc1NC(=O)N1C[C@@H]2C[C@H](C1)c1c(-c3cncnc3)ccc(=O)n1C2 | 32% | -3.66 |

| SMILES | % Inhibition | Z score |
| --- | --- | --- |
| CCC1(CC)CN(CCc2nccn2C)CCO1 | 0% | -0.01 |
| C[C@@H](Cc1ccccn1)N(C)CCC(=O)Nc1ccccc1Cl | -7% | 1.04 |
| CC(=O)C1(c2ccccc2)CCN(C(=O)[C@@H](N)Cc2c[nH]cn2)CC1 | -13% | 1.89 |
| CCOC[C@@H](O)CN1CCCN(C(=O)Oc2ccccc2)CC1 | -6% | 1.19 |
| COCCN1C(=O)NC(=O)C2(Cc3ccccc3N3CCN(c4ccc(OC)cc4)CC32)C1=O (centres undefined) | -4% | 0.5 |
| O=C(CN1CCN(C(=O)Cc2ccccc2)CC1)Nc1ccccc1F | 14% | -1.63 |
| O=C(Cc1ccc(Cl)cc1Cl)N1CCC[C@H](c2n[nH]c(=O)o2)C1 | 5% | -0.51 |
| CC(C)n1nccc1[C@H]1OCC[C@@H]1NC(=O)c1ccc(S(=O)(=O)F)cc1 | 1% | -0.19 |
| CC(C)N1CCN(Cc2cncn2C)CC1 | 23% | -2.9 |
| Cc1nnc(N2CCN(C)CC2)c(C#N)c1C | -5% | 0.72 |
| O=C(c1ccc2cccnc2n1)N1C[C@H](c2ccccc2)[C@@H]2[C@H]1C1CCN2CC1 | -9% | 1.23 |
| O=C1COc2c(Cl)cc(NC(=O)N[C@H]3CN4CCC3CC4)cc2N1 | -12% | 1.54 |
| Cc1noc(C)c1Cc1nc([C@H]2CN3CCCCC3CO2)no1 (some centres undefined) | 30% | -3.38 |
| CCC#CCN1C[C@H]2c3cccc(OC)c3OC[C@@]2(C(=O)O)C1 | -15% | 2.37 |
| O=C(N[C@H]1CN2CCC1CC2)c1ccc(Cl)cc1 [PNU-282987] | -6% | 0.75 |
| Cc1cccc(OCC(=O)N2CCN(Cc3noc4ccccc34)CC2)c1 | -7% | 0.86 |
| O[C@@H](CN1OC2CCC1CC2)C1CCCCC1 | -11% | 1.13 |
| CC(Cc1ccsc1)NC1CCCN(CC(F)(F)F)C1=O (centres undefined) | -5% | 0.55 |
| C=CCCC(CN1C[C@H]2CC=CC[C@H]2C1)Oc1ncccn1 (some centres undefined) | -8% | 1.33 |
| CN1CCCC12CCN(c1ccc3ncccc3c1)CC2 | -3% | 0.34 |
| Cc1ccc(S(=O)(=O)N2CCC(C(=O)N3C[C@@H]4C[C@@H](C3)c3cccc(=O)n3C4)CC2)cc1 | -17% | 2.14 |
